Test results reported in PubChem BioAssay AID504332 (National Center for Advancing Translational Sciences (NCATS), 2011).
Values joined by “and” are separate entries in the source; they are usually repeats but may differ in a detail not shown here. Equal values may be shown once. Among all 350,000 compounds or so, about 31,000 (8.9%) were called active. This list was built around the results that the source calls inconclusive (neither active nor inactive); the mix of calls is not that of the screen. Calls come from the whole dose curve; as a rule, active = well fitted inhibition curve with a large enough effect; inconclusive = small, poorly fitted or top-dose-only effect; inactive = no such curve, though single readings can be large or run the other way. A potency beside an inconclusive call is a rough fit, not a confirmed value. The source holds several records for some structures; these can differ, active in one and inactive in another.

Biological target: Histone-lysine N-methyltransferase EHMT2 (Homo sapiens) (UniProt Q96KQ7)
Assay: qHTS Assay for Inhibitors of Histone Lysine Methyltransferase G9a; note: nearly all actives have a fitted effect of over 75% in size
Details: G9a H3K9 monomethylation, AlphaScreen, 2 h; activity, negative = inhibition: at 59 µM (top of the series) unless noted
In short: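 AlphaScreen read-out: biotin-H3K9 peptide (500 nM) methylation by 20 nM enzyme with 20 uM SAM, 2 h at room temperature after 15 min compound preincubation; anti-monomethyl H3K9 antibody plus donor/acceptor beads, 10 min dark.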
% is set by controls: 0 for no effect and ±100 for the full control effect; potency is the fitted concentration of half-maximal effect; tags give direction and shape of the fitted curve.

Chain of UniProt Q96KQ7 (Q96KQ7 whole entry, looked up): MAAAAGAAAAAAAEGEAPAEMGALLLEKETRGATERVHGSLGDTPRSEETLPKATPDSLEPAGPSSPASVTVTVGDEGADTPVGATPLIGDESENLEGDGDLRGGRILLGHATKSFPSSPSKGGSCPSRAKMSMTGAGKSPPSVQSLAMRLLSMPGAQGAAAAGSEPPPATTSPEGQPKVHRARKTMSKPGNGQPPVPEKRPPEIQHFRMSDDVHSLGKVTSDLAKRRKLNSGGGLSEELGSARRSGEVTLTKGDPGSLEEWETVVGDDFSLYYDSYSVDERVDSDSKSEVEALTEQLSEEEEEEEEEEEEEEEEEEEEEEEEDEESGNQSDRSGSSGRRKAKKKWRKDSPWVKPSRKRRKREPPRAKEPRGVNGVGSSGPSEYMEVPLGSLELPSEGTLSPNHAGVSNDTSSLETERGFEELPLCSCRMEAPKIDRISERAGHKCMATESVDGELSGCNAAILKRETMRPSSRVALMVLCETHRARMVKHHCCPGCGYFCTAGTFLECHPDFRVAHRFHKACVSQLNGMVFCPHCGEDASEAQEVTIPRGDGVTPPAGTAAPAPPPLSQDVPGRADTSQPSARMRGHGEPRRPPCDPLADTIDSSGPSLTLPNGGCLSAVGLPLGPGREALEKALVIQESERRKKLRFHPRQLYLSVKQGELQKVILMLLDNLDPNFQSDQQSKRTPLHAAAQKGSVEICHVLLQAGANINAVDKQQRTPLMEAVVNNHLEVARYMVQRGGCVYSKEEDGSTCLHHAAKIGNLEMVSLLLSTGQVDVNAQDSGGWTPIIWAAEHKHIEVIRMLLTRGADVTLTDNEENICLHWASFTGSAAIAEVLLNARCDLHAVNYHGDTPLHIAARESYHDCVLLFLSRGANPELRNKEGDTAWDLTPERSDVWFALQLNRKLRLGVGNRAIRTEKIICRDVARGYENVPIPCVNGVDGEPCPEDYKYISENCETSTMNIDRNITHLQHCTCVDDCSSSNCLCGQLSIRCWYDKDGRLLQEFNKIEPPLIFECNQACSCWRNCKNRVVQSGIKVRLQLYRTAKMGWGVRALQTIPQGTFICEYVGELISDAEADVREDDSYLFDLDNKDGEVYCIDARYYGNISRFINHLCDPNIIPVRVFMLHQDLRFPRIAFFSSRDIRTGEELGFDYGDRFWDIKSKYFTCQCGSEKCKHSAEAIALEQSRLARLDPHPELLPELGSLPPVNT

SMILES	Potency	activity, negative = inhibition
Cc1cc(C)c(S(=O)(=O)Nc2nccs2)c(C)c1	inconclusive: 89.1 µM [inhibitor, single point]	
COC(=O)c1ccc(NC(=S)N2CCN(C)CC2)cc1	inconclusive: 50.1 µM [inhibitor, partial curve]	
CN(C)CCCNc1ccc(-c2cc(Nc3cccc(Cl)c3)ncn2)cn1		inactive: -4.4% [at 12.7 µM]
COc1ccc(O)c(C(=O)c2cnc3onc(C(C)C)c3c2)c1	inconclusive: 50.1 µM [inhibitor, partial curve, poor fit]	
COC(=O)c1cc(COC(=O)CNC(=O)c2cccc(C)c2)oc1C	inconclusive: 10 µM [inhibitor, partial curve, poor fit]	
O=C(CCN1C(=O)/C(=C\c2cccs2)SC1=S)Nc1ccc(C(=O)O)cc1	inconclusive: 10 µM [inhibitor, partial curve, poor fit]	
Cc1cc(Nc2nc3c(c(=O)n(C)c(=O)n3C)n2C)n(-c2ccc(Cl)cc2)n1	inconclusive: 79.4 µM [inhibitor, single point]	
CCOc1ccc(Oc2c(/C=N/NC(N)=O)c(C)nn2-c2ccccc2)cc1		inactive: -50%
Cc1ccccc1NC(=S)NCc1cccn1C		inactive: -19%
Nc1c(Cl)cc(NC(=O)c2ccccc2C(=O)O)cc1Br	inconclusive: 39.8 µM [inhibitor, single point]	
Cc1ccc(N(C(=O)c2csnn2)C(C(=O)NC2CCCCC2)c2cccnc2)cc1 (stereo not given)		inactive: -6.35% [at 102 µM]
NC(=S)NNc1c(F)c(F)c(F)c(F)c1F	active: 35.5 µM	
O=C(COC(=O)C1Cc2ccccc2CN1C(=O)c1ccccc1Cl)Nc1ccc(N2CCOCC2)cc1 (stereo not given)	inconclusive: 39.8 µM [inhibitor, single point]	
CSc1ccc(/C=C/C(=O)c2c(O)cc(C)oc2=O)cc1	inconclusive: 89.1 µM [inhibitor, single point]	
CNc1nc(N/N=C/c2ccc([N+](=O)[O-])cc2)nc(Nc2ccccc2)n1		inactive: 10.9%
O=C(N/N=C/c1ccc(OCC(=O)N2CCCCC2)cc1)c1ccccc1	inconclusive: 6.31 µM [inhibitor, single point]	
Cc1ccc(-n2ncc(C(=O)N3CCN(C4CCCCC4)CC3)c2C2CCN(C(=O)OC(C)(C)C)CC2)cc1		inactive: -15.5%
COC(=O)c1cc(=O)n(CCc2ccc(OC)c(OC)c2)c(=Nc2ccc(F)c(Cl)c2)s1	active: 25.1 µM	
CCc1ccc(Sc2cc(C(=O)NCCCN3CCCC(C)C3)c3ccccc3n2)cc1 (stereo not given)		inactive: -43.9%
Cc1cc(N2C(=O)c3ccc(C(=O)Nc4ccccc4O)cc3C2=O)no1		inactive: 33.1% [at 102 µM]
O=C(CCc1n[nH]c(=O)[nH]c1=O)N/N=C/c1ccc(Br)o1	inconclusive: 39.8 µM [inhibitor, partial curve]	
Cc1cc(C(=O)Nc2nnc(C(F)(F)F)s2)no1	inconclusive: 56.2 µM [inhibitor, partial curve, poor fit]	
CNC(=O)c1[nH]cnc1C(=O)Nc1ccc(C)cc1	inconclusive: 10 µM [inhibitor, partial curve, poor fit]	
COc1ccccc1CNc1nc(-c2ccco2)nn1S(=O)(=O)c1ccc(C)cc1	inconclusive: 10 µM [inhibitor, partial curve, poor fit]	

SMILES	Potency	activity, negative = inhibition
Cc1sc(NC(=S)NC(=O)c2ccco2)c(C#N)c1C	active: 35.5 µM	
Cc1ccc(C(=O)c2ccccc2C(=O)OCC(=O)Nc2cccc([N+](=O)[O-])c2)cc1	inconclusive: 20 µM [inhibitor, single point]	
CCOC(=O)Cc1cnc(NC(=O)Cn2nnc(-c3ccc(OCC)cc3)n2)s1		inactive: 3.1% [at 102 µM]
CCOc1ccc(/C=C2/Sc3ccc(C(=O)NCC4CCCO4)cc3N(C)C2=O)cc1OC (stereo not given)		inconclusive: -82.7% [inhibitor]
CN1/C(=C/C2CC(=O)NC2=O)C(C)(C)c2ccccc21 (stereo not given)	inconclusive: 3.55 µM [inhibitor, single point]	
Cn1c(C(=O)OC(C(=O)NC(C)(C)C)c2cccnc2)cc2sccc21 (stereo not given)	inconclusive: 89.1 µM [inhibitor, partial curve, poor fit]	
O=C(NC(=S)Nc1ccc(F)c([N+](=O)[O-])c1)c1ccccc1F	active: 44.7 µM	
CC(C)Oc1ccc(S(=O)(=O)N2CCOCC2)cc1NC(=O)C1=NN(c2ccccc2)C(=O)CC1	inconclusive: 79.4 µM [inhibitor, partial curve, poor fit]	
Cc1ccc(-c2nsc(NC(=O)c3oc4cc(C)c(Cl)cc4c3C)n2)cc1		inactive: 2.33%
COc1cccc(NC(=O)CSCC(=O)Nc2ccccc2)c1	inconclusive: 22.4 µM [inhibitor, single point]	
CCN(CC)c1ccc(NC(=O)c2c(OC)cccc2OC)c(C)c1	inconclusive: 15.8 µM [inhibitor, partial curve, poor fit]	
CC1CCCN(S(=O)(=O)Cc2ccc(Cl)cc2)C1 (stereo not given)		inactive: 6.53%
CC1(C)Cc2c(c(N3CCOCC3)nc3sc(C(=O)N4CCCCC4)c(N)c23)CO1	active: 4.47 µM	
Cc1cccc(C(=O)OCC(=O)NCCCc2ccccc2)c1O		inactive: -1.33% [at 102 µM]
CC1=Nc2ccccc2/C1=C\c1nc(-c2ccccc2)oc1O	inconclusive: 28.2 µM [inhibitor, single point]	
CCOC(=O)c1c(NC(=O)C2CC=CCC2C(=O)O)sc(C)c1CC (stereo not given)		inactive: -8.47% [at 102 µM]
O=C(N/N=C/c1cccs1)c1cc(-c2cccc3ccccc23)n[nH]1		inactive: -10.8% [at 102 µM]
Cc1ccc(OCCCN2CCOCC2)cc1	active: 39.8 µM	
CN(C)C(=O)c1nc(C#N)c(N(C)C)o1	inconclusive: 7.08 µM [inhibitor, single point]	
C[C@@H](C(=O)Nc1ccc2ccccc2c1)[C@H]1C[C@]1(C)[C@H](NS(=O)(=O)c1ccccc1)c1ccccc1	inconclusive: 100 µM [inhibitor, single point]	
CCCCn1c(N)c(N(CCOC)C(=O)c2cc(S(=O)(=O)N3CCCCC3)ccc2C)c(=O)[nH]c1=O	inconclusive: 11.2 µM [inhibitor, partial curve, poor fit]	
Cc1ccccc1C(=O)NCc1ccc2c(c1)CCN2C(=O)c1ccccc1		inactive: 21.1%
COc1cccc(CN2CCN(C(=S)NCc3ccc(Cl)cc3)CC2)c1	inconclusive: 25.1 µM [inhibitor, partial curve]	
Cc1c(C(=O)N2CCc3ccccc3C2)oc2ccccc12		inactive: 31% [at 102 µM]

SMILES	Potency	activity, negative = inhibition
COc1ccc(CCNC(=O)Cn2nnc(-c3cccc(C(F)(F)F)c3)n2)cc1OC		inactive: 7.11%
CC(Oc1ccc(Cl)cc1Cl)C(=O)NNC(=O)c1ccncc1 (stereo not given)		inconclusive: -67.5% [inhibitor] [at 2.33 µM]
COC(=O)c1c(NC(=S)Nc2ccc(C(=O)N3CCOCC3)cc2)sc2c1CCC2	active: 50.1 µM	
COc1ccccc1NC(=S)NNC(=O)c1ccccc1Br	active: 35.5 µM	
COc1ccc(CCNC(=O)CSc2ccccn2)cc1OC	active: 11.2 µM	
COc1ccc(CNC(=O)c2cc(Nc3ccc(OC)cc3OC)nc3ccccc23)cc1	inconclusive: 0.794 µM [inhibitor, partial curve, poor fit]	
Cc1cccc(NS(=O)(=O)c2nnc(NC(=O)C3CCCCC3)s2)c1	inactive and active: 8.91 µM	
C/C=C/C=C/C(=O)N1CC2(CC(c3cccc(NC(=O)CCCCC)c3)=NO2)C[C@H]1C(N)=O (stereo not given in full)		inconclusive: -81.8% [inhibitor] [at 12.7 µM]
CCCCCN(C(=O)CCC(=O)OCC(=O)N1CCC(C)CC1)c1c(N)n(CCCC)c(=O)[nH]c1=O	inconclusive: 56.2 µM [inhibitor, partial curve, poor fit]	
CCOc1ccc(/C=C/C(=O)OCC(=O)c2ccccc2OC)cc1OC	inconclusive: 56.2 µM [inhibitor, partial curve, poor fit]	
COc1ccc(N/N=C2/CCCCC2=O)cc1	active: 10 µM	
COC(=O)c1ccccc1OCCOCCOc1cccc2ccc(C)nc12	inconclusive: 35.5 µM [inhibitor, partial curve, poor fit]	
Cc1ccc(-c2cc(C(=O)Nc3ccc(S(=O)(=O)Nc4cc(C)on4)cc3)c3ccccc3n2)c(C)c1	inconclusive: 39.8 µM [inhibitor, single point]	
CCCC(=O)NC(c1ccc(N(C)C)cc1)c1c(O)ccc2ccccc12 (stereo not given)	active: 31.6 µM	
COc1ccc2oc(=O)cc(CN3CCN(C(=O)c4ccccc4)CC3)c2c1	inconclusive: 0.708 µM [inhibitor, partial curve, poor fit]	
Cc1nc(SCC(=O)N2CCN(c3ccccc3)CC2)n[nH]1	active: 39.8 µM	
CC(C)CC(NC(=O)C1CCC(C)CC1)C(=O)Nc1ccc2c(c1)OCCO2 (stereo not given)	inconclusive: 89.1 µM [inhibitor, single point]	
CC1CCCCN1C(=O)CSc1nc2ccccc2n1CC(=O)N1CCc2ccccc21 (stereo not given)	inconclusive: 89.1 µM [inhibitor, partial curve, poor fit]	
CN(C)C(=O)CCSC(SCCC(=O)O)c1cccc(/C=C/c2ccc3ccc(Cl)cc3n2)c1 (stereo not given)		inactive: 7.17% [at 12.7 µM]
Cc1ccc(S(=O)(=O)Nc2ccc3c(c2)c2c(n3S(=O)(=O)c3ccc(C)cc3)CCCC2=O)cc1		inactive: 7.98%
CC1Cc2ccccc2N1C(=O)CSc1nnc(-c2cccc(Cl)c2)o1 (stereo not given)		inactive: -0.255%
COc1cc(C(=S)N2CCC(C(N)=O)CC2)ccc1O	inconclusive: 3.55 µM [inhibitor, partial curve, poor fit]	
